Earlier results, collected in patent CN116283752A (priority 2023, dated 2023).

System: Mycobacterium tuberculosis [结核菌]
Settings: cited from earlier work

Compound: COc1ccn2nc(C)c(C(=O)NCc3ccc(N4CCC(c5ccc(OC(F)(F)F)cc5)CC4)cc3)c2c1 [TB47, 5-甲氧基-2-甲基-N-(4-(4-(4-(三氟甲氧基)苯基)哌啶-I-取代)苄基)吡唑[1,5-a]吡啶-3-甲酰胺]
- in vivo and in vitro antitubercular activity (in words): 已被证实存在体内外抗结核菌的活性
- synergistic antibacterial effect with known antitubercular drugs (in words): 存在协同抗菌作用
